Measured values from PubChem BioAssay AID886 (National Center for Advancing Translational Sciences (NCATS), 2007).
Values joined by “and” are separate entries in the source; they are usually repeats but may differ in a detail not shown here. Equal values may be shown once. In all, about 73,000 compounds went through this assay and about 2,500 (3.4%) were called active. Inconclusive results, whose numbers are uncertain, are shown with a selection of clear calls. Calls follow the shape of the dose curve; as a rule, active = well fitted inhibition curve with a large enough effect; inconclusive = small, poorly fitted or top-dose-only effect; inactive = no such curve, though single readings can be large or run the other way. Potencies beside an inconclusive call are fits to weak or partial responses and may not hold up.
% is scaled to controls: 0 for no effect and ±100 for the full control effect; potency is read from the fitted curve at half-maximal effect; tags tell the direction and shape of the fitted curve.
Also: nearly all actives have a fitted effect of over 60% in size.

What follows are molecules tested against 3-hydroxyacyl-CoA dehydrogenase type-2 (Homo sapiens) (UniProt Q99714) (assay: qHTS Assay for Inhibitors of HADH2 (Hydroxyacyl-Coenzyme A Dehydrogenase, Type II)). Settings: recombinant HADH2, NADH fluorescence, beta-hydroxybutyryl-CoA; activity change, negative = inhibition: at 57.1 µM (top of the series).
Chain of UniProt Q99714 (Q99714 whole entry, looked up): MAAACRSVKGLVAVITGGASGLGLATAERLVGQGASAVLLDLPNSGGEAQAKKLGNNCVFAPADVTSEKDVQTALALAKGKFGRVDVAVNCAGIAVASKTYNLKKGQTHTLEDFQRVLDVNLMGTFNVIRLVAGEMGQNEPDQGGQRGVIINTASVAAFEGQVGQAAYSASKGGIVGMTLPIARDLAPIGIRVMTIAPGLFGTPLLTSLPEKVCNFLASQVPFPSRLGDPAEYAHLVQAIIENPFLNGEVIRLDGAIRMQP
Chain of UniProt Q99714 (Q99714 whole entry, looked up): as above
Summary of the method: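 Read-out: 360 nm excitation, 450 nm emission, kinetic over 4 min. Conditions: His-tagged human HADH2 20 nM, pH 9.0 Tris with Tween-20, 1 mM NAD+, 90 uM beta-hydroxybutyryl-CoA.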
For Cc1ccc2c(c1)c1c3n2CCN(C(=O)C2CC2)C3CCC1 (stereo unspecified), the Potency was inconclusive: 31.6 µM [inhibitor, single point]. In the case of O=C(O)c1ccc2c(c1)ncn2C1CCCCCC1, the Potency is reported as inconclusive: 25.1 µM [inhibitor, partial curve]. With CCN(CC)c1ccc(NS(=O)(=O)c2ccc3c(c2)oc(=O)n3C)c(C)c1 the Potency was inconclusive: 25.1 µM [inhibitor, single point]. With COC(=O)c1c(NC(=O)c2ccco2)sc(C)c1C the Potency was inconclusive: 31.6 µM [inhibitor, single point]. For N#Cc1c(N)nc(SCc2ccncc2)c(C#N)c1-c1cccs1, the Potency was active: 31.6 µM. With CC(C(=O)Nc1ccccc1C(=O)N1CCCC1)n1nnc2ccccc21 (stereo unspecified) the Potency was inconclusive: 31.6 µM [inhibitor, single point]. For CS(=O)(=O)Nc1nnc(Cc2ccccc2)s1, the Potency was inconclusive: 25.1 µM [inhibitor, single point]. In the case of O=C(Nc1nnc(C2CC2)o1)c1ccc(S(=O)(=O)N2CCCc3ccccc32)cc1, the “activity change, negative = inhibition” value is reported as inactive: -20.9%. COc1cccc(-c2nnc(SCC(=O)N3CCOCC3)o2)c1 was tested, and the Potency was inconclusive: 31.6 µM [inhibitor, single point]. With O=C(CCN1CCCCC1)N1CCc2c([nH]c3ccccc23)[C@H]1c1cccnc1 the activity change, negative = inhibition was inactive: 4.32% [at 11.4 µM]. In the case of O=C(Nc1ccc(F)cc1)N(CCCN1CCOCC1)Cc1cc2cc3c(cc2[nH]c1=O)OCCO3, the Potency is reported as inconclusive: 31.6 µM [inhibitor, single point]. Cc1cc(C)c2c(n1)nn1c(NCCN3CCOCC3)cc(C)nc21 was tested, and the Potency was active: 31.6 µM. In the case of COC(=O)C1C(C(C)C)N(c2ccccc2)OC1(C)O (stereo unspecified), the Potency is reported as inconclusive: 31.6 µM [inhibitor, single point]. CNC(=O)c1c(N)sc2c1CCCCC2 was tested, and the Potency was inconclusive: 3.16 µM [inhibitor, full curve]. With c1ccc2c(c1)Cc1cc(CN3CCOCC3)ccc1-2 the “activity change, negative = inhibition” value was inactive: -5.8%. With Cc1cc(Nc2cccc(C)c2C)n2nc(C)nc2n1 the “activity change, negative = inhibition” value was inactive: -1.37%. In the case of O=C(NCc1ccccn1)C1COc2ccccc2O1 (stereo unspecified), the “activity change, negative = inhibition” value is reported as inactive: 0.594%. With Cc1ccc(S(=O)(=O)Nc2ccccc2C(N)=O)cc1 the Potency was active: 25.1 µM. With Cn1c(=O)n2n(c1=O)[C@H]1[C@H](O)[C@H]3O[C@H]3C(=O)[C@H]1CC2 the Potency was inconclusive: 7.94 µM [inhibitor, single point]. For CC(=O)C1=C(O)C(=O)N(CCc2c[nH]c3ccccc23)C1c1ccc(O)cc1 (stereo unspecified), the Potency was inconclusive: 12.6 µM [inhibitor, partial curve]. For CCC(=O)Nc1ccc(C(=O)CSc2nnc(-c3cccnc3)o2)cc1, the Potency was inconclusive: 12.6 µM [inhibitor, partial curve]. With CC(=O)Nc1cccc(NC(=O)c2c(-c3ccccc3Cl)noc2C)c1 the “activity change, negative = inhibition” value was inactive: 3.12%. COc1ccc(C)cc1NC(=O)CCC(=O)Nc1ccc2nc(N3CCN(C)CC3)cc(C)c2c1 was tested, and the Potency was active: 31.6 µM. For C=CCn1c(=N)c(C(=O)OCC)cc2c(=O)n3cc(C)ccc3nc21, the Potency was active: 31.6 µM. With CCN(CC)C(=O)N1CCC(NC(=O)c2ccccc2)CC1 the “activity change, negative = inhibition” value was inactive: 2.68%. COC(=O)c1sccc1NC(=O)c1ccc(Br)o1 was tested, and the Potency was inconclusive: 5.01 µM [inhibitor, single point]. Cc1nn(C)c(C)c1NC(=O)CN1CCC(O)(c2ccc3c(c2)OCO3)CC1 was tested, and the “activity change, negative = inhibition” value was inactive: -3.05%. For Cn1c(=S)c2[nH]c(SCc3cccnc3)nc2n(C)c1=O, the Potency was inconclusive: 5.01 µM [inhibitor, single point]. In the case of COc1ccccc1NC(=O)N(CCCN1CCOCC1)Cc1cc2cc3c(cc2[nH]c1=O)OCO3, the Potency is reported as inconclusive: 31.6 µM [inhibitor, single point]. With COc1cc(OC)cc(-c2cc3nc4c(c(N5CCN(c6cnccn6)CC5)n3n2)CCCC4)c1 the Potency was inconclusive: 39.8 µM [inhibitor, single point]. CCOc1ccc(Cn2c(SCCCCC#N)nc3c2c(=O)n(C)c(=O)n3C)cc1OCC was tested, and the Potency was inconclusive: 12.6 µM [inhibitor, partial curve]. With O=C(NCc1ccco1)c1csc(Nc2ccccc2Cl)n1 the Potency was inconclusive: 31.6 µM [inhibitor, single point]. For Cc1csc(NC(=O)NC2(C(F)(F)F)Oc3ccccc3O2)n1, the Potency was active: 2 µM. In the case of CN(C)c1ncnc2ccc(-c3cccc(C#N)c3)cc12, the “activity change, negative = inhibition” value is reported as inactive: -19.8%. In the case of O=c1c2ccccc2sn1-c1cc(S(=O)(=O)N2CCOCC2)ccc1N1CCOCC1, the Potency is reported as inconclusive: 0.316 µM [inhibitor, full curve]. In the case of CCOC(=O)CCc1c(C)c2ccc(OC(C)C(=O)OCC)c(C)c2oc1=O (stereo unspecified), the Potency is reported as active: 25.1 µM. With Cn1c(=O)n(C)c2cc(/C=N/n3cnnc3)ccc21 the Potency was active: 25.1 µM. Cn1c(NC(=O)c2cccnc2)nc2ccccc21 was tested, and the Potency was inconclusive: 20 µM [inhibitor, single point]. With CCc1sc(NS(C)(=O)=O)nc1-c1ccccc1 the Potency was inconclusive: 7.94 µM [inhibitor, full curve, poor fit]. NC1=NC(S)C2N=CN=C2N1 (stereo unspecified) was tested, and the Potency was inconclusive: 1.26 µM [inhibitor, full curve]. For C=CCSC1=N/C(=C\C=C\c2ccco2)C(=O)S1, the Potency was active: 7.94 µM. Cc1nc(SCc2nc3ccccc3[nH]2)c2oc3ccccc3c2n1 was tested, and the “activity change, negative = inhibition” value was inactive: 8.48%. For CC(C)Oc1ccccc1C1CC(=O)Nc2cc3c(cc21)OCCO3 (stereo unspecified), the “activity change, negative = inhibition” value was inactive: -27.3%. In the case of O=C(N/N=C/c1ccc(O)cc1O)c1cc(-c2ccccc2)n[nH]1, the Potency is reported as inconclusive: 15.8 µM [inhibitor, partial curve]. Nc1nc2n(c1C(=O)c1ccccc1)CCC2 was tested, and the Potency was inconclusive: 3.98 µM [inhibitor, single point]. In the case of NNC(=O)[C@@H](O)[C@H](O)[C@H](O)CO, the activity change, negative = inhibition is reported as inactive: 5.34% [at 11.4 µM]. CCOC(=O)c1cnc2scnn2c1=O was tested, and the Potency was inconclusive: 25.1 µM [inhibitor, single point]. For COc1cccc2[nH]c3c(N4CCC(C(N)=O)CC4)ncnc3c12, the Potency was active: 25.1 µM. In the case of CC1CCN(S(=O)(=O)c2ccc3[nH]c(=O)c(=O)[nH]c3c2)CC1, the Potency is reported as inconclusive: 39.8 µM [inhibitor, single point]. For Cc1sc2nc(CSc3nc4ccccc4c(=O)n3CCCN3CCOCC3)[nH]c(=O)c2c1C, the Potency was inconclusive: 39.8 µM [inhibitor, single point]. For COc1ccc(Cn2nnnc2C(c2cc3cc(C)cc(C)c3[nH]c2=O)N2CCOCC2)cc1 (stereo unspecified), the Potency was inconclusive: 39.8 µM [inhibitor, single point]. CO[C@H]1COC(=O)CCC[C@H](C)[C@H](OC)COC(=O)C/C=C\[C@@H]1C was tested, and the activity change, negative = inhibition was inactive: 8.02% [at 11.4 µM]. With COc1cccc(Cn2c(=O)c(CCc3ccccc3)nc3cnc(N4CCNCC4)nc32)c1 the “activity change, negative = inhibition” value was inactive: 11.2%. For N#Cc1c(-c2ccc(Cl)cc2Cl)nc2n(c1=O)CCS2, the Potency was inconclusive: 31.6 µM [inhibitor, single point]. With COc1ccc(-c2noc(CCC(=O)Nc3cc(OC)ccc3OC)n2)cc1 the “activity change, negative = inhibition” value was inactive: 3.74%. With C=CCN1CCc2cc(O)c(O)cc2[C@H](c2ccccc2)C1 the Potency was inconclusive: 316 nM [inhibitor, full curve] and inconclusive: 158 nM [inhibitor, full curve]. For COc1ccc(Cc2nn3c(-c4ccccc4OC)nnc3s2)cc1, the Potency was inconclusive: 25.1 µM [inhibitor, single point]. With C=CCNc1nc(NCc2ccco2)nc(OCC)n1 the “activity change, negative = inhibition” value was inactive: 15.7%. CCOC(=O)C1CCCN(C(=O)c2cc3nc(-c4cccc(OC)c4)cc(C(F)(F)F)n3n2)C1 (stereo unspecified) was tested, and the “activity change, negative = inhibition” value was inactive: -15.9%. CC(C)c1ccc(S(=O)(=O)c2n[nH]n3c2nc(=O)c2ccccc23)cc1 was tested, and the Potency was active: 31.6 µM. With N#Cc1nc(-c2ccc(OCc3ccccc3)cc2)oc1N1CCOCC1 the Potency was inconclusive: 31.6 µM [inhibitor, single point]. In the case of CSc1ccccc1NC(=O)c1cc(-c2cccs2)on1, the Potency is reported as inconclusive: 39.8 µM [inhibitor, single point]. With Cc1ccccc1NC(=O)CSC(N)=O the Potency was inconclusive: 0.794 µM [inhibitor, full curve]. For CCn1c2ccccc2c2cc(NC(=O)CSc3nnc(C4CC4)n3Cc3ccco3)ccc21, the Potency was inconclusive: 31.6 µM [inhibitor, single point]. In the case of O=C(Nc1ccc(Cl)cn1)c1cccc(F)c1, the “activity change, negative = inhibition” value is reported as inactive: 0.422%. In the case of O=C(CSc1nc2ccccc2c(=O)n1-c1ccc(Cl)cc1)c1ccco1, the “activity change, negative = inhibition” value is reported as inactive: 13.1%. CC1CCCCN1C(=O)CSc1nnc(-c2ccc(Cl)s2)o1 (stereo unspecified) was tested, and the “activity change, negative = inhibition” value was inactive: -20%. In the case of COc1ccc(C2C(C(=O)N3CCOCC3)=C(C)NC3=C2C(=O)CC(C)(C)C3)c(OC)c1 (stereo unspecified), the Potency is reported as inconclusive: 39.8 µM [inhibitor, single point]. With CCC1CCCCN1CCCNC(=O)C1CCN(S(=O)(=O)N2CCCCC2)CC1 (stereo unspecified) the Potency was inconclusive: 0.316 µM [inhibitor, full curve]. For CC(=O)Nc1ccc(NC(=O)c2oc3cc(C)c(C)cc3c2C)cc1, the “activity change, negative = inhibition” value was inactive: 9.23%. In the case of COc1nc(-c2ccccc2)ccc1-c1noc(-c2cccnc2)n1, the Potency is reported as active: 15.8 µM. O=C1c2cccnc2C(=O)N1c1ccccc1-c1ccccc1 was tested, and the Potency was inconclusive: 6.31 µM [inhibitor, single point]. In the case of COc1cc(-c2cccs2)cc(=O)c2c(C)oc(C)c12, the Potency is reported as inconclusive: 12.6 µM [inhibitor, partial curve]. With N#Cc1nc(-c2cccs2)oc1NCC1CCCO1 (stereo unspecified) the Potency was active: 5.01 µM. For Fc1cccc2sc(N3CCCCC3)nc12, the “activity change, negative = inhibition” value was inactive: -0.253%. With COCCn1nnnc1CN(Cc1cccnc1)Cc1cc2cc(OC)ccc2[nH]c1=O the “activity change, negative = inhibition” value was inactive: -0.171%.
